# Test results as given in PMC4336329 (PLoS ONE, 2015).
# Screen size: about 310,000 compounds; about 2,200 (0.71%) showed an effect of 50% or more. Effects have a minus sign here. The list shows a part of the results.
# Target: human ether-à-go-go-related gene (hERG) potassium channel (human, UniProt Q12809)
# Experiment: primary screen, population patch clamp on CHO cells stably expressing hERG
# Sequence of human ether-à-go-go-related gene (hERG) potassium channel (Q12809 whole entry, looked up): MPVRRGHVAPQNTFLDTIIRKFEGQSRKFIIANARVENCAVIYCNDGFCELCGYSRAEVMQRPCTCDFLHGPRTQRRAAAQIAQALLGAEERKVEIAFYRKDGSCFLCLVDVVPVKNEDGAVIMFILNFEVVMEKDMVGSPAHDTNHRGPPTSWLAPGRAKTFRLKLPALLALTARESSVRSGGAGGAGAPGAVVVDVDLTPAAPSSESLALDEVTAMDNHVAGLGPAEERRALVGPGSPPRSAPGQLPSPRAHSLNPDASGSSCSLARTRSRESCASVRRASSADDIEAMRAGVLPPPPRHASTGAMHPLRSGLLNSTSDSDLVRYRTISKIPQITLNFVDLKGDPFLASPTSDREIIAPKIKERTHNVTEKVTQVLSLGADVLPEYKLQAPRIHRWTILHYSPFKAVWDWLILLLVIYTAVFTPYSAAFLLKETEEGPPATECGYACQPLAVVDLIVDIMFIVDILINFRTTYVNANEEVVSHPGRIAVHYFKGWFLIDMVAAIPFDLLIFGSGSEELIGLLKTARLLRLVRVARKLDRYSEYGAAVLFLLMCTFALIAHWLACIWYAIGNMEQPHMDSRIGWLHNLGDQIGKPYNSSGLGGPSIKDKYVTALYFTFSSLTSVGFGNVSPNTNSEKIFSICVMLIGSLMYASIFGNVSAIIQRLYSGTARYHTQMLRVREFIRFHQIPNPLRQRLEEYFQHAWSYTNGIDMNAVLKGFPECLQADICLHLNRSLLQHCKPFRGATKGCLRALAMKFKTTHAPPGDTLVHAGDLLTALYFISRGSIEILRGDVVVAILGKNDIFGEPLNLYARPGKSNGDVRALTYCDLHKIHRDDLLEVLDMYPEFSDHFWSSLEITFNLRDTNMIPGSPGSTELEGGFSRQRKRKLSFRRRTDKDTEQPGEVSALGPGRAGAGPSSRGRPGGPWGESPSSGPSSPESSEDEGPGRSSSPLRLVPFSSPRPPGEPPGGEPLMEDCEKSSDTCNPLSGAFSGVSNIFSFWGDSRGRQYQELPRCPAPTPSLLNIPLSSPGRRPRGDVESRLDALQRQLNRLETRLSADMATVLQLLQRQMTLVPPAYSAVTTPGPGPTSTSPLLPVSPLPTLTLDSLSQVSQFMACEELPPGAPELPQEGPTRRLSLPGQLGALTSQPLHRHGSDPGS
row,SMILES,"hERG current change (%, negative = inhibition) at 1uM"
1,CC(Cc1ccccc1)NC(=O)CCCCC(=O)NC(C)Cc1ccccc1 (centres unmarked),15.4%
2,COc1cccc(C2CCCN2Cc2nc(CC3CC3)no2)c1 (centres unmarked),14.5%
3,c1ccc(CCNc2nc(-c3ccccn3)nc3ccccc23)cc1,-15.8%
4,Cc1ccc(S(=O)(=O)N2CCCCC2CCNC(=O)C(=O)NCc2ccncc2)cc1 (centres unmarked),-4.18%
5,CCNCc1cc(Cl)c(OCc2ccccc2)c(OCC)c1.Cl,5.68%
6,Cc1ccc(NCc2nnc(SCC(=O)Nc3cc(C)on3)n2C)cc1,11.6%
7,Cc1ccc2[nH]c(C)c(CCNC(=O)C3CCCCC3C(=O)OCC(F)(F)F)c2c1 (centres unmarked),6.33%
8,O=C(CCn1cncn1)N1CCN(S(=O)(=O)c2ccc(Cl)cc2)CC1,12.5%
9,CCOC(=O)Cc1csc(NC(=O)CSc2nnc(C(C)C)n2CC)n1,8.25%
10,CCC(C(=O)NCCCc1ccccc1)c1ccccc1 (centres unmarked),2.45%
11,CC(C)Oc1ccc(C2CC(=O)N(C)C2=O)cc1 (centres unmarked),15.3%
12,CCOc1ccc(C(=O)OCC(=O)NCc2ccco2)cc1OCC,4.2%
13,Cc1ccc(C(C)C)c(OCC(=O)N/N=C2\CC(=O)CC(C)(C)C2)c1,5.93%
14,O=C(NCCSCc1ccccc1)c1ccc(C2SCC(=O)N2Cc2ccccc2)cc1 (centres unmarked),2.75%
15,CC(=O)NCCc1nc2cc(NS(=O)(=O)c3ccccc3)ccc2n1C,-4.54%
16,Cc1ccc(NC(=O)CCC(=O)NNC(=O)COc2ccccc2)c(C)c1,7.32%
17,O=C(C1CC(=O)N(c2ccc3c(c2)OCCO3)C1)N1CCCC(C(F)(F)F)C1 (centres unmarked),11.3%
18,COC(=O)C1=C(C)NC(=O)/C1=C\c1cc(C)n(-c2ccccc2)c1C,21.5%
19,COc1cc2c(cc1OC)CN(C(=O)/C=C/c1ccc(F)cc1)CC2,8.63%
20,O=C1CCN(Cc2ccccc2)S(=O)(=O)c2ccccc21,10.9%
21,COC(=O)COc1ccc(S(=O)(=O)Nc2cc([N+](=O)[O-])ccc2C)cc1,21.1%
22,O=C(Cc1cccc2ccccc12)N/N=C/c1ccc(O)c([N+](=O)[O-])c1,5.64%
23,Cc1c(Cc2ccccc2)c(=O)oc2cc(OCC(=O)NCc3ccccn3)ccc12,9.49%

row,SMILES,"hERG current change (%, negative = inhibition) at 1uM"
1,O=C(Cn1ncc(Cl)c(Cl)c1=O)N1CCOCC1,12%
2,CCOC(=O)c1c(CN2CCCCC2)n(C)c2cc(Br)c(O)cc12,-68.8%
3,Cc1cc(C)cc(OCC(=O)N2N=C(C(F)(F)F)CC2(O)C(C)(C)C)c1 (centres unmarked),9.92%
4,Cc1ccc2cccc(Oc3ncnc4scc(-c5ccc(Cl)cc5)c34)c2n1,-0.47%
5,CCN1CCN(CC(=O)Nc2ccccc2)C(=O)C1=O,14%
6,COC(=O)c1cc(C(=O)NCc2ccccc2)c(=O)[nH]c1C,4.07%
7,CCO/C=C1/C(=O)N(Cc2ccccc2)C(=O)c2ccccc21,6.53%
8,CCCCCCCCN1[C@@H](CC(=O)OC)c2cc(F)ccc2S1(=O)=O,-0.716%
9,COc1cccc(C(=O)NCCS(=O)(=O)N2CCC3(CC2)OCCO3)c1,9.28%
10,COc1ccc2nc(N3C(=O)CNC3=S)sc2c1,8.24%
11,CSc1nc(-c2ccccc2)nc(NC(C)=O)c1C(C)=O,6.75%
12,O=C(Nc1ccccc1-c1ccccc1)c1cccc([N+](=O)[O-])c1,0.868%
13,O=C(CCCN1C(=O)/C(=C/c2ccco2)SC1=S)Nc1cccc(C(=O)O)c1,6.91%
14,CN(C)N=Nc1ccc2nc[nH]c2c1,3.96%
15,Cc1ccc(S(=O)(=O)N2CCN(CC(=O)Nc3ccc4c(c3)CCC4)CC2)cc1C,7.52%
16,COC(=O)COc1ccc2c(=O)c(Oc3ccccc3)c(C)oc2c1,11.6%
17,CC(C)OC(=O)C(C(=O)C(F)(F)F)c1cc(NS(=O)(=O)c2ccc3ccccc3c2)c2ccccc2c1O (centres unmarked),7.27%
18,CC1CCc2ccccc2N1C(=O)c1cccs1 (centres unmarked),8.12%
19,CCn1c(CC(=O)Nc2ccc(C)cc2)nnc1SCC(=O)NCCc1ccccc1,-4.71%
20,C=C(C)CNC(=O)c1ccc(OC2CCN(S(=O)(=O)N(C)C)CC2)cc1,13.2%
21,CN(C)[C@@H]1C(=O)C(C(N)=O)=C(O)[C@@]2(O)C(=O)C3=C(O)c4c(O)cccc4[C@@](C)(O)C3[C@H](O)C12.O (some centres unmarked),-3.5%
22,O=C(c1ccccc1)N1N=C(c2ccccc2)CC1c1cccs1 (centres unmarked),9.97%
23,CCN1CCN(c2ccc([N+](=O)[O-])cc2C=C2C(=O)NC(=O)NC2=O)CC1,-21.4%

row,SMILES,"hERG current change (%, negative = inhibition) at 1uM"
1,O=C(CN1C(=O)c2ccccc2C1=O)NCc1ccc(N2CCOCC2)cc1,11.8%
2,Cc1ccc(S(=O)(=O)NCCc2cc3ccc(C)cc3[nH]c2=O)cc1,7.36%
3,COc1ccc(C)cc1S(=O)(=O)NCCN1CCOCC1,12.5%
4,COc1cc(CN(C(=S)NCC(=O)O)C2CCCC2)cc(OC)c1OC,18.1%
5,CCNC(=S)NNC(=O)c1ccc2ncccc2c1,1.32%
6,Clc1cc(NCc2ccccc2)ncn1,16.9%
7,CCCCS(=O)(=O)Nc1ccc(C(=O)NCC2CCCO2)cc1 (centres unmarked),7.38%
8,CCOC(=O)Nc1nnc(-c2cccc(OC)c2)s1,-3.94%
9,CC(=O)c1c(C)[nH]c(C(=O)OCC(=O)N2CCCC2=O)c1C,11.5%
10,CC(C)C[C@H](NC(=O)c1nc[nH]c1C(=O)N1CCC(C)CC1)C(=O)OC(C)(C)C,9.91%
11,CCCCSc1nc(C)cc(C)c1S(=O)(=O)c1ccccc1C,8.01%
12,O=C(N/N=C/c1ccccc1[N+](=O)[O-])c1cccs1,14.1%
13,CCN(CC)CCn1c(=S)[nH]c2cc(C(=O)N3CC(C)CC(C)C3)ccc2c1=O (centres unmarked),11.4%
14,COc1ccc(C(=O)NCCN2C(=O)S/C(=C\c3cccnc3)C2=O)c(OC)c1OC,-1.42%
15,O=S(=O)(N/N=C/c1cn(Cc2ccccc2)c2ccccc12)c1ccccc1,6.23%
16,CC(C)NC(=O)c1sc2nc(-c3cccs3)cc(-c3cccs3)c2c1N,-2.74%
17,Nc1c(-c2ccccc2)cnc2c(-c3ccccc3)cnn12,10.8%
18,CCOCc1nnc(NC(=O)c2cccc(OC)c2)s1,13.8%
19,CC1=NN(c2ccccc2)C(=O)/C1=C/c1cc2cc(C)ccc2nc1N1CCCCC1,8.59%
20,Cc1cc(N(CCCl)CCCl)ccc1/C=N/NC(=O)c1ccco1,9.76%
21,CN(C(=O)COc1ccc(S(=O)(=O)N2CCOCC2)cc1[N+](=O)[O-])C1CCS(=O)(=O)C1 (centres unmarked),22.1%
22,Cn1c(N)c(C(=O)CSc2nc3ccccc3c(=O)n2Cc2ccccc2)c(=O)n(C)c1=O,2.35%
23,CN1CCN(c2ccc([N+](=O)[O-])c(Sc3ccccn3)c2)CC1,8.85%

row,SMILES,"hERG current change (%, negative = inhibition) at 1uM"
1,O=C(NCc1ccccc1)/C(=C/c1ccccc1)NC(=O)c1ccco1,-2.39%
2,CC(=O)n1nc(-c2ccccc2)nc1NCc1ccc(N(C)C)cc1,-1.63%
3,CCc1nnc(NC(=O)c2c(-c3ccccc3)noc2C)s1,9.07%
4,COc1ccc(CC(=O)NCCN2CCOCC2)cc1,11.5%
5,CCCCCCCCCC(=O)N1c2ccccc2NC(=O)C1CC(=O)Nc1ccc(C(=O)O)cc1 (centres unmarked),8.78%
6,CS(=O)(=O)N1CCN(c2nnc(-c3ccccc3)c3ccccc23)CC1,-7.2%
7,COC(=O)\C(C(C)=O)=C(/C=C/C=C/C=C/N(C)C)N(C)C,4.91%
8,COc1ccc(C(=O)Nc2cc(Cl)ccc2OC(=O)c2ccc(OC)cc2)cc1,8.14%
9,Fc1ccc(-n2nnnc2-c2ccccc2Cl)cc1,11.9%
10,Cc1cccc(NS(=O)(=O)c2ccc(-c3cnc(C4CC4)o3)cc2)c1,17.5%
11,CCOC(=O)C(NC(=O)N(C)C)(Nc1sc(C)c(CC)c1C#N)C(F)(F)F (centres unmarked),0.692%
12,CCCN(CCC)C(C)C(=O)NCC1(c2ccccc2)CCCC1.Cl (centres unmarked),5.77%
13,CCCCSc1oc(-c2ccco2)nc1S(=O)(=O)c1ccccc1,12.9%
14,COC(=O)c1ccccc1NC(=O)Cn1c(=O)oc2ccc(Cl)cc21,10.2%
15,Cc1cccc(C)c1OCC(=O)NCc1nnc(SCC(=O)NC2CCCCC2C)n1C (centres unmarked),1.8%
16,O=C(N1CCOCC1)N1CCC(n2nnc3cc(F)ccc32)CC1,0.687%
17,C=C(c1ccccc1O)n1ccnc1,16%
18,COc1ccccc1-n1c(C)nnc1SCC(=O)NCc1ccccc1,14%
19,CCCCOc1ccccc1C(=O)N(Cc1ccco1)C1CCS(=O)(=O)C1 (centres unmarked),6.83%
20,CCn1c(=O)c2c(nc3n2CC(C)CN3CCc2ccccc2)n(C)c1=O (centres unmarked),-31.2%
